Test results: the supplement of paper PMC3334620
In all, about 33,000 sequences were measured (“E-score (-0.5 to 0.5)”: median about -0.054, highest 2% from about 0.35 on). The list shows a part of the results.

Each sequence was assayed against T1, Stb5 (UniProt P38699) (assay: PBM E-score (8-mer binding enrichment) (E-score (-0.5 to 0.5)); higher = stronger / more preferred TF binding; most listed sequences are background and not binding sites). Details: protein concentration: 200 nM; construct: GST-full length.
T1 sequence: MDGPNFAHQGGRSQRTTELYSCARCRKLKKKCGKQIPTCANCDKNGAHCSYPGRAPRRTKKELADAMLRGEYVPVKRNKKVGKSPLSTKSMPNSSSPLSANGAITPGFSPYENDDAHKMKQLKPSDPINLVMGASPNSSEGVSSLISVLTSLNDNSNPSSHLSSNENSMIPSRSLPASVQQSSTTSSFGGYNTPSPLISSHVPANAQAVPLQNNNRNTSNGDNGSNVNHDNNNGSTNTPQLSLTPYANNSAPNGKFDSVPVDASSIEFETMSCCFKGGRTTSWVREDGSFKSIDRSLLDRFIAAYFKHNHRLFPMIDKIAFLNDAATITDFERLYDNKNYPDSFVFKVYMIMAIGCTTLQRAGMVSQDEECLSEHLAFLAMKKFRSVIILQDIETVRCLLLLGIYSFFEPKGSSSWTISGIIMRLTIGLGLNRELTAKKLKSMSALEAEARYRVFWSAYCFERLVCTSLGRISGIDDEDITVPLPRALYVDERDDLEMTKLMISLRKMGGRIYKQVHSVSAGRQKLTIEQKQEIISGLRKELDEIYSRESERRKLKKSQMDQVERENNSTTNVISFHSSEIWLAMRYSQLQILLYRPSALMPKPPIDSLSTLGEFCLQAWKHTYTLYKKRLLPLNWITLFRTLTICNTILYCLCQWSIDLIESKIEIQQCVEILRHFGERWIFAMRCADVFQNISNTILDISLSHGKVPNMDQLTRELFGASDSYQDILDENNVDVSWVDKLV
In short: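 PURExpress in vitro transcription/translation supplied GST-tagged yeast transcription factors, either full-length or DNA-binding domain. Applied at about 100-200 nM to universal all-10-mer Agilent arrays double-stranded by primer extension, the bound protein was detected with fluorescent anti-GST. E-scores, modified Wilcoxon-Mann-Whitney statistics, were given by the Universal PBM Analysis Suite to ungapped eight-base words pooled with their reverse complements after masliner normalisation.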

| Sequence | PBM E-score |
| --- | --- |
| ACATAAGA | -0.0369 |
| AATGCAGG | -0.259 |
| AAGTTTAG | 0.0409 |
| CACCGCGC | 0.401 |
| AGGGTTTG | -0.0633 |
| ATCACACG | 0.0972 |
| CGGTTTGA | 0.163 |
| ATTCTGAA | 0.0113 |
| CAGGAGCA | -0.102 |
| CATCGTCC | 0.0586 |
| GCGGCCGA | 0.0888 |
| AAGACTGC | -0.201 |
| TAAATAGA | 0.0163 |
| AGCGACTG | -0.328 |
| ACACAGCA | -0.065 |
| ACCGCGAT | 0.346 |
| AGGCGATC | -0.302 |
| AAGATCCC | 0.0724 |
| GGATGAGA | -0.304 |
| CGTGGTGC | 0.105 |
| ATTGGTGA | -0.252 |
| ATTACACA | -0.0719 |
| GAGTTCAA | -0.153 |
| CCACATGC | -0.104 |
| ACTTAGGG | -0.279 |

| Sequence | PBM E-score |
| --- | --- |
| AAAGATTG | -0.239 |
| CGGTTTGC | 0.0773 |
| GGGCGGCA | 0.323 |
| CTGAATCC | -0.0039 |
| AGCCTCAG | -0.284 |
| CCGAGCGG | 0.332 |
| AGGAATCG | -0.00211 |
| CATGGTGC | 0.0108 |
| GTCATTTA | -0.0261 |
| GACATACA | 0.129 |
| ACTAACTG | -0.042 |
| CATGAGGG | -0.227 |
| GCCAGAGA | -0.195 |
| GTAGAGGA | -0.212 |
| CATTTGTC | -0.0965 |
| CATACTGA | -0.196 |
| ACCCTCGG | 0.124 |
| ATAACTTC | 0.0857 |
| GCCACTGA | -0.192 |
| CCCTTGAG | -0.025 |
| GAAGGTTA | -0.0832 |
| AAGGAGGA | -0.32 |
| GGAAAATA | 0.0672 |
| GAGCCTGA | -0.016 |
| CCATAACG | -0.0562 |

| Sequence | PBM E-score |
| --- | --- |
| AACGTCTA | -0.113 |
| CCTATTGC | -0.0447 |
| AAATACCT | -0.0726 |
| GCATGGGA | -0.0248 |
| AAATTCTC | -0.0542 |
| CGACCTGA | -0.281 |
| GATCCCAA | -0.249 |
| ACACTGGA | -0.163 |
| GCTGTATA | -0.11 |
| AACGCCGT | 0.437 |
| AATCAGCG | 0.177 |
| CGAGAGGC | -0.109 |
| ACCTACCA | -0.158 |
| AGGTCGCG | -0.00818 |
| GCGTCTAA | -0.0711 |
| AAATACTC | -0.00557 |
| ATGGCGGG | 0.283 |
| CGCTAGAA | 0.0671 |
| CGGCAGCA | 0.208 |
| CGACTTCC | 0.025 |
| GCGCTTAA | 0.0781 |
| TCGTGGCA | -0.196 |
| GCCTTTCA | 0.097 |
| GGAGTCAC | 0.116 |
| GTCCGCAA | 0.196 |

| Sequence | PBM E-score |
| --- | --- |
| ATGGCAGG | -0.0726 |
| AGACAAGG | -0.0903 |
| ACTATGAA | -0.131 |
| ATGGGCGA | -0.103 |
| CGCAGCTC | -0.208 |
| ATTGAATC | -0.113 |
| AGAGAAGG | -0.0992 |
| ATTTCACG | 0.0121 |
| AGACTAAG | -0.0466 |
| GAGCTTGA | -0.169 |
| CGGAACCC | 0.126 |
| ACCTGCTA | -0.0977 |
| AGTTGAGG | -0.237 |
| ACTTATCC | 0.135 |
| AAGGTTTC | -0.214 |
| GCCTGGAC | 0.0057 |
| AGTCGGGA | 0.287 |
| AACCCGGC | 0.309 |
| GACTGCGC | -0.087 |
| TAGGGGCA | -0.317 |
| GCTCTTCA | -0.134 |
| CGGATGAA | 0.17 |
| CTTTAAAC | 0.0394 |
| CATACTCA | -0.236 |
| ATAAAACA | 0.0701 |

| Sequence | PBM E-score |
| --- | --- |
| CGCCACAC | 0.0326 |
| ACCTCGTA | -0.0722 |
| CCATAGCA | -0.147 |
| CCGATACA | 0.28 |
| CCCTCTGC | -0.326 |
| ATGCTGCG | 0.014 |
| CTCAAACC | -0.124 |
| AATGGCGG | 0.261 |
| AATCGGTC | 0.234 |
| CGAGGGAG | -0.265 |
| CCATCTTA | -0.11 |
| CACAGTAG | -0.255 |
| GTACAGAC | -0.196 |
| ACTAGTTG | -0.2 |
| AGTCTGCA | -0.132 |
| ATCATATG | -0.111 |
| AAGTCTGG | -0.316 |
| CAGCAGCA | -0.244 |
| GATAACGA | -0.102 |
| GACTCGCA | -0.089 |
| ATGTAGAG | -0.0692 |
| ATCCATCG | 0.00275 |
| CACAATGA | -0.244 |
| CAAAATTG | -0.176 |
| CCCTCTAG | -0.109 |

| Sequence | PBM E-score |
| --- | --- |
| TCAGGCAA | -0.186 |
| ATGCAGAC | -0.197 |
| CCCATGAA | -0.0849 |
| CGGAGCTC | 0.249 |
| CTTCCAAA | -0.293 |
| ACTTAGAT | 0.0184 |
| GGACATAC | 0.314 |
| CCTTTTAC | -0.163 |
| AACAAATG | -0.0842 |
| ACTGCCGC | 0.311 |
| AGTAAAAC | -0.0669 |
| CGTGCATC | -0.0271 |
| ATCGTAAG | -0.132 |
| CCCGCGAA | 0.0986 |
| GAAGATCC | 0.0386 |
| AACGTTTG | -0.125 |
| CAGCTAGA | -0.208 |
| AGATAACA | -0.0529 |
| GTGCTCTA | -0.159 |
| CATAGAAC | -0.0402 |
| AAGCGCTG | 0.078 |
| CTCAAGGA | -0.163 |
| AAGACCTC | -0.0749 |
| TCAGCCGA | 0.0641 |
| ACCCATAG | -0.249 |

| Sequence | PBM E-score |
| --- | --- |
| CTGTTACA | -0.0738 |
| CCTCGCTA | -0.137 |
| GCAGGACA | 0.00302 |
| ACCCGTTA | 0.0551 |
| AAATAAGA | 0.231 |
| ATATAAGA | -0.0442 |
| CCGCTCGC | 0.373 |
| CAATGCTA | -0.228 |
| CGTTTGCA | 0.0334 |
| CTGTCGAA | -0.286 |
| CAAGGAAC | 0.0348 |
| AGGCCAAA | -0.132 |
| GCTTAAGA | 0.104 |
| AAGATTCG | -0.0384 |
| AAAGCAAG | -0.0917 |
| AGTGATAA | -0.0882 |
| AGCTAACG | 0.00522 |
| ACCAGAGA | -0.296 |
| GTTAACGA | -0.155 |
| ACTGGACG | 0.0439 |
| CAGCTGGA | -0.205 |
| GCACTAAA | 0.253 |
